A collection of fitness landscapes (doi:10.1016/j.celrep.2020.107928)
Whole data set: some 81,000 sequences, median “one-hybrid fitness for binding parS DNA” near -0.17, cut for the highest 2% near 0.51. The list shows a part of the results.

B1: Caulobacter ParB omega fusion; a variant is named by its letters at X, in order, B8GW30 (parent)
chain: MESVVVGEPGMSEGRRGLGRGLSALLGEVDAAPAQAPGEQLGGSREAPIEILQRNPDQPRRTFREEDLEDLSNSIREKGVLQPILVRPSPDTAGEYQIVAGERAWRAAQRAGLKTVPIMVRELDDLAVLEIGIIENVQRADLNVLEEALSYKVLMEKFERTQENIAQTIGKSXSHVANXMRLLXLPDEVQSYLVSGELTAXHARAIAAAADPVALAKQIIEGGLSVRETEALARKAPNLSAGKSKGGRPPRVKDTDTQALESDLSSVLGLDVSIDHRGSTGTLTITYATLEQLDDLCNRLTRGI

Variants of: B1
Assay: one-hybrid fitness for binding parS DNA (scaled: cognate 1, non-cognate 0); higher = stronger binding
Details: with parS DNA site
Procedure, shortened: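 The reporter was HIS3, with the binding site 19 bp from the promoter, in E. coli USO used for bacterial one-hybrid selection of Caulobacter ParB libraries with four specificity codons randomised. Growth was on M9 lacking histidine, with 0.1 mM IPTG and 5 mM 3-AT, for 48 hours at 37°C. Illumina sequencing covered plasmids before and after selection; three replicate libraries were pooled and variants with under 10 reads dropped. A fitness score is the log change in variant-to-wild-type read ratio, rescaled to the cognate and non-cognate references.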

Point of comparison: RTRA, “one-hybrid fitness for binding parS DNA” value 0.794. Against it:
- SCQC — lower, ≤ 0.2
- GQQG — lower, ≤ 0.2
- HDLS — lower, ≤ 0.2
- CNNC — lower, ≤ 0.2
- HESR — lower, ≤ 0.2
- QPAL — lower, ≤ 0.2
- KAER — lower, ≤ 0.2
- ALAS — lower, ≤ 0.2
- QYKP — lower, ≤ 0.2
- LRLT — lower, ≤ 0.2
- IAQM — lower, ≤ 0.2
- RKVC — higher, 0.868
- HSSP — lower, ≤ 0.2
- AKQD — lower, ≤ 0.2
- NRAG — lower, ≤ 0.2
- LKPP — lower, ≤ 0.2
- RESD — lower, ≤ 0.2
- HNTT — lower, ≤ 0.2
- FDRT — lower, ≤ 0.2
- HRQD — lower, ≤ 0.2
- YPHG — lower, ≤ 0.2
- AMPR — lower, ≤ 0.2
- PRPE — lower, ≤ 0.2
- QDNA — lower, ≤ 0.2
- RACR — lower, ≤ 0.2
- TSKR — lower, ≤ 0.2
- FLAG — lower, ≤ 0.2
- NPMK — lower, ≤ 0.2
- WDCC — lower, ≤ 0.2
- HFWS — lower, ≤ 0.2
- GHDS — lower, ≤ 0.2
- STQS — lower, ≤ 0.2
- QPNS — lower, ≤ 0.2
- NTRN — lower, ≤ 0.2
- DTMI — lower, ≤ 0.2
- RLMQ — lower, ≤ 0.2
- ELQY — lower, ≤ 0.2
- PCED — lower, ≤ 0.2
- QPKK — lower, ≤ 0.2
- AEAC — lower, ≤ 0.2
- TDHC — lower, ≤ 0.2
- KDPW — lower, ≤ 0.2
- SSMF — lower, ≤ 0.2
- SGIT — lower, ≤ 0.2
- RDDV — lower, ≤ 0.2
- RCIT — lower, 0.78
- HDSY — lower, ≤ 0.2
- LWAA — lower, ≤ 0.2
- DCCR — lower, ≤ 0.2
- EGPA — lower, ≤ 0.2
- RQPR — lower, ≤ 0.2
- ASSS — lower, ≤ 0.2
- LMLY — lower, ≤ 0.2
- LAML — lower, ≤ 0.2
- NCTS — lower, ≤ 0.2
- NGTR — lower, ≤ 0.2
- DASN — lower, ≤ 0.2
- SMAC — lower, ≤ 0.2
- TTDG — lower, ≤ 0.2
- DAVY — lower, ≤ 0.2
- PPWS — lower, ≤ 0.2
- FGIT — lower, ≤ 0.2
- WFPC — lower, ≤ 0.2
- TKQC — lower, ≤ 0.2
- GNKS — lower, ≤ 0.2
- TTYL — lower, ≤ 0.2
- PSRI — lower, ≤ 0.2
- IRKG — lower, ≤ 0.2
- RLEM — lower, 0.301
- RKWN — lower, 0.364
- TLGM — lower, ≤ 0.2
- WSQL — lower, ≤ 0.2
- PRVC — lower, ≤ 0.2
- PTNM — lower, ≤ 0.2
- RVGM — lower, 0.306
- PVVR — lower, ≤ 0.2
- SCPH — lower, ≤ 0.2
- EMAL — lower, ≤ 0.2
- PDYF — lower, ≤ 0.2
- HTSG — lower, ≤ 0.2
- TCDG — lower, ≤ 0.2
- QSWH — lower, ≤ 0.2
- TSSY — lower, ≤ 0.2
